Laboratory results published in the RNAGym collection of RNA variant scans (doi:10.7554/elife.90254).
Read counts are not given, so values of variants with three or more changes are uncertain.

B1: LINE1-mini (parent)
chain: GGCAGAGCUCAACACAGCGUGGCAAAGUGGCUGUGGCUAGACUGCC

Variants of: B1
Assay: self-cleavage, relative activity (ratio to wild type); higher = more cleavage; in vitro, sequencing; the parent is a self-cleaving ribozyme

Variant	self-cleavage
G5A C8A A12U U34C G35U	0.47
G2U A4U U28A C46G	0.03
U9G A16U G35C A39G C46U	0.03
A6C A12G A24U U38A	0.01
G2A G5C A11C	0.02
C3A C8U U32A	0.05
G22U A25G A26G G27A A39U	0.6
G7A C8G C23U A26C	0.05
G1C A4G G5A	0.03
C18U U28A A41G	0.3
A11U G22U U34C G40U U43G C46A	0
G2U C15U G27U G30A U38G C45U	0
C3U A24G G30A C31A	0.08
C10A G27U G29C	0.02
A25U A26C U28C G44C	0.22
G7A C23G U43C	0.02
C8G C18U C37U	0.04
A4U G5A A12U U28C	0.02
A16G G17U A26U G27U G40C	0
U20G G40C A41C	0.03
C8A G27U G35U G44A	0.27
C23A G35A U38G	0.02
G2A C15A A16U A25C C45G	0.2
C13U U34G C37A G40C C42U	0.06

Variant	self-cleavage
A4G A6G U9A G40A	0.11
C3U A11G U20G G21U U28A A39U G44A	0.02
G5U G7C U34A	0.02
A12G C13A G17C C23U A25C	0.03
G2U C8A G21U A24C G40U	0.01
G19U G27U G33U G40U C45G	0.06
G17A G21A U38C G40A	0.05
G1A A11C G21A	0.07
A4U G19C U34A C45A	0.06
G19A A26C C37A C42A G44U	0.06
G1A G5A G21A	0.17
C18U G30A G36U	0.07
C3G C10U G44C	0.13
C8U G17C A24U G27A	0.11
A14G C15U C31G G36U A39U	0.01
G21C G33A C42A	0.04
C3U C10U A24C G36A	0.06
C15U C31U U43C	0.07
G33U G36U G44U C45A	0.01
A4C C31G U38A G40U C45G	0.01
G1C C13G G19C U20A C45U	0.02
U34A A39C C46G	0.06
C8U A24C G33A G44A	0.51
A4U G5A G30U	0.08

Variant	self-cleavage
G1U C8U C37G C42G C46A	0.07
G1U C13U G36U	0.14
G5A G7U U9A	0.56
G5U G19A G40U	0.06
C10U G17U A25U C46A	0.04
G1U C3U G22C G27C G36C	0.1
A4G C13U C45U	0.65
A6G G17C U20G G36A	0
G2A G22A G36U	0.06
A26G A39U G40C	0.19
G27U G35A C42U	0.07
C13U U20A A39G	0.05
G5C C13U A24G A39G	0.07
G5U C31G U32A	0.04
A6U A12C U20C A41C	0.04
A11C A24C G36C	0.03
C3A G17A C31G U38C G40C	0.08
G1C U9C C13U A14U G29U	0.02
C3A U38C A41C	0.01
U20C C23U G35C G36A U38C G40U	0.01
G2C A16U G19C G27U	0.01
A12U U20G G22U A25U	0.08
G7A C23G G33C	0.01
C8A G27A U38C G44C	0.12

Variant	self-cleavage
C23U G35U G36U	0.27
C3U C15G G19U	0.01
G2C A4G U34C	0
G36A C37A A41C	0.02
G7U G29A U43A	0.04
C10U G22C G27U C37U A41U	0.01
A4G A12C C15U A24U U28A	0.05
C8A C13U G17C U43C	0.15
G2C G19U G27C	0.07
A6G G21C G40C	0.03
C18U G44A C45G	0.35
A16U C23A U38C	0.13
A12G G29C G36A A41G	0.02
U28C A41U U43C	0.09
G2C A6G A25G A26U U34A G35U	0.07
G5U G7A G35U	0.87
A4C A12G C23G	0
G1A C23U U38C G44U C45A	0.03
A6C G7U U28A A39U	0.2
C3A A12U G36U A41U	0.12
C8U C18A G33U	0
C13A A14C A16G G44A	0.06
C15G G21U G36A	0.02
A12C G36A A39C	0.01

Variant	self-cleavage
G2U G19C U32G G44A	0.02
G1U A11U U28A C42U U43G C45G	0
G19A U20A G30A A39G C42A	0.02
G5C C10A C18G G22U	0.02
G2C A24C A26C G27C A39G	0.16
A11C C18U G22C	0
G5U C10A G17C A25C G29U C31A	0.07
A11G G27U G35U A41U C46U	0.01
C3A U9A C10A A14U	0.08
G1A C15G C18U G22A C31G C45U	0.02
A16G G36A A41C	0.03
C3A U9A G30A	1.54
A4G A12C G40U	0.03
G7A G17A U20C G21U G29A G30C	0.15
G7A U9C C13A G21A C42A	0.02
A6U G7U A25U G36A G44U	0.11
U32G G36U C42U	0
G1U A25U A41G	0.07
A6U U9A C13A G29U	0.19
C10U G19U G35A	0.05
C10G G27U C37U G40A	0.01
C13A C15G A24C G27C	0.04
U20G G27U G29A	0.25
C3U C13A G19C A25C G30A G35U	0.05

Variant	self-cleavage
G1A A11U C18A	0.05
G1U G5U C18A	0.06
G7C A14U U32C G40A C42U	0.01
G5A A25G A26U U28G	0.09
G2U G27A G44A	0.08
A11C G19C U34A G36A	0
G35A A41G G44U	0.01
G2C C10A G17A G21U G36C	0
G7U A11C G27A U43C	0.03
U9A C10G U28A A41U	0.02
A16C G17U G21A A25C U38A	0.07
U9C U28A G44U C45U	0.03
A4G G7U U9A A11G U20C	0.01
C10U A11U G21C G27U	0.03
C3G U9C A11C U20C G33C	0.02
A25U A26U U38G	0.03
C13G G21C C37U A39C	0.07
G17U U20A C23U G40C	0.02
A11G C15U C18A	0
A4U G7C G17A G30U	0.04
C3U C10A G36U	0.03
A6U G7A C8A A12C C13A	0.59
C3G A4U G33C U38A	0.11
G19A A26G A41U	1.11

Variant	self-cleavage
A11C G33A A41U	0.02
A14U G22A G27U C37G C42A	0.07
A12C C15U G22C C45A	0.03
G5U C10G A11U C18G G29C	0.01
G17C G35C G40U C46U	0.04
A24G G33C G35U	0.04
G2U A12G G21U A39U	0.01
A11G C31U C37A C42A	0
G1A G5U G33A U38A G40U	0.05
A12C A16U U32G C42A	0
C10A C18A G35U	0.01
C15A G30C G33C G44A	0.02
A12U G22U U28G C31A U34C A41U G44U	0.03
C10A A16C G40U	0.05
G1U C8U C23G	0.03
A26G U34G C42U	0.03
C3A G30U U43G C46G	0.55
G1C G5U C31A	0.04
A25U U28C G40U A41C C45A	0.28
C31A G33A C42G	0.2
G1U C13U A14G C18U U38A	0.01
G7U C23A G33A A39G	0.01
U9C C18G G40U	0.04
